Reference: ChEMBL document CHEMBL4888484, “Replenishing the malaria drug discovery pipeline: Screening and hit evaluation of the MMV Hit Generation Library 1 (HGL1) against asexual blood stage Plasmodium falciparum ,using a nano luciferase reporter read-out” (2022)
Out of some 150,000 compounds screened, about 540 (0.36%) showed an effect of 50% or more. The list shows a part of the results.

System: Plasmodium falciparum
Assay: Primary screen in NF54 nanoGlo assay, in single point, at 2uM, 72h; a lower Z score goes with more inhibition
Format: functional, Erythrocyte
Conditions: timepoint 72 hour

SMILES	% Inhibition [%]	Z score
Cc1ccc2c(c1)C(C)(C)[C@@]1(/C=C/c3ccccc3)NC(=O)CCN21	10	-1.34
Cn1cc(-c2cc(-c3cnn(C)c3)n(Cc3cccc(Cl)c3)n2)cn1	6	-0.73
CC(=O)N1CCN(CCc2ccccc2)[C@@H]2CS(=O)(=O)C[C@@H]21	-8	0.98
CC(C)(C)c1cc(C[C@@H]2C[C@H](NS(=O)(=O)c3ccccc3)C2(C)C)no1	-3	0.39
CCCNC(=O)[C@H]1c2ccccc2CC(=O)N1CCC	1	-0.26
COc1ccc(C(=O)C2CCN(c3ncc(C)s3)CC2)cc1	-7	0.95
Cc1ccccc1C(=O)NCCn1ccc(-c2cccs2)n1	0	-0.09
Nc1nonc1-n1nncc1-c1ccc(Cl)s1	2	-0.28
Cc1cc(C(=O)N2CCN(C[C@H](OCc3ccc(C#N)cc3)c3cccc(N4CCCC4)c3)CC2)n(C)n1	-9	1.02
Cc1cc(C(=O)N[C@H](c2cccnc2)C2CCOCC2)n(C)n1	-10	1.93
CCOc1ccc(Cn2c(Oc3ccc(Cl)cc3C3CCCCC3)nc3c2c(=O)n(C)c(=O)n3C)cc1OCC	-6	0.76
Cc1cc(C2CC2)nc(NS(=O)(=O)c2cccc3nsnc23)n1	-7	0.56
O=C(Cn1cnc(C2CC2)cc1=O)N1CCC(Oc2nncs2)CC1	-10	1.52
Cc1ccc([C@H](CNC(=O)Nc2ncn(C)n2)N2CCCC2)o1	1	-0.16
CC1OCCC1NCc1ccnc(OCC(F)F)c1 (stereo unspecified)	-13	1.65
CC(=O)N1C(c2ccccc2)c2[nH]c3ccccc3c2C[C@H]1C(=O)O (stereo partly specified)	-16	2.1
CC(C)N(C)c1ccc(CN2CCN([C@@H](C)C(=O)NC3CCCC3)CC2)cn1	-5	0.48
c1ccc(Cc2ccc(Oc3ncnc4c3CCC4)cc2)cc1	-15	1.79
Cc1cc(CNC(=O)Nc2nc(C3CC3)ns2)cc(N)n1	0	-0.04
COCc1noc(CCc2c(C)[nH]c(=O)c(C#N)c2C)n1	-1	0.07
O=C(NCc1cccc(Br)c1)c1ccc(Oc2nccnc2N2CCCCC2)cc1	-8	1.22

SMILES	% Inhibition [%]	Z score
Cc1cccc(N(CC(C)(C)C)C(=O)COC[C@H]2CCCO2)n1	-7	0.94
COCCN(Cc1c(C)nn(-c2cccc(F)c2)c1N1CCN(C)CC1)C(=O)CC(C)(C)C	8	-0.98
COc1ccc(C)cc1NC(=O)CNC(=O)c1sc(Cc2ccc(F)cc2)nc1C	3	-0.31
Cc1cccc(S(=O)(=O)N2CCc3nc(N4CCCC4)nc(N(C)C)c3C2)c1	-7	0.73
CCc1c(C)nn(Cc2nc(CC(N)=O)n[nH]2)c1C	12	-2.25
C=CCC[C@@H](CN(C)Cc1cccnc1)Oc1ncc(F)c(N(C)C)n1	-8	1.44
Cc1ccc(-c2csc3ncnc(N4CC([C@H](C)O)C4)c23)cc1	-2	0.46
CCC(C)NC(=O)C(NC(=O)c1cccc(C)c1)C1CCN(C(=O)C(C)C)CC1 (stereo unspecified)	2	-0.37
CCOC(=O)N1CCC2(CC1)N=C(c1ccc(Cl)cc1)C[C@@H](c1cccc(OCC)c1O)N2	-19	2.12
CCC1(CNc2nccc(N(C)C)n2)CCC1	-16	1.74
COc1ccc(Cl)cc1-c1cc(C)c(C)[nH]c1=O	6	-0.9
Cc1cc(=O)c2ccccc2n1CC(=O)N[C@@H](C)Cc1cnccn1	-8	1.43
Cc1cc(=O)[nH]c(-n2nc(C3CC3)cc2NC(=O)C(c2ccccc2)c2ccccc2)n1	86	-11.5
Cc1cccc(CC(=O)N2CC[C@H]3N(C)S(=O)(=O)CC[C@]3(C(=O)N3CCCC3)C2)c1	-4	0.53
CCOc1ccnc(OCC)c1Br	-3	0.39
COc1ccc2cc(C(=O)N3CCC(CC(=O)N4CCCCC4)CC3)[nH]c2c1	-16	1.45
COc1ccc(/C=C/CN(CCN(C)C)C[C@H]2CCCO2)cc1	-17	2.33
COc1ccc(OC)c(-c2nn(-c3ccccc3)cc2C(=O)N(C)c2ccccc2)c1	-3	0.39
COc1cc(CN(C)S(=O)(=O)c2c(N)noc2C)sn1	2	-0.48
CC(C)(C)N1Cc2cc(Cl)ccc2OCC1=O	-2	0.19
CC(C)(C)OC(=O)NCC1(C(=O)O)CCCC1	-13	1.72

SMILES	% Inhibition [%]	Z score
O=C1CC(C(=O)N2CCOc3cccc(Br)c3C2)=NN1	-11	2.13
COc1cccc(NC(=O)C2CCN(c3c(-n4c(C)ccc4C)c(C)nn3-c3ccccc3)CC2)c1	13	-1.85
CCCS(=O)(=O)N1CCC(CNC(=O)CCn2cccn2)CC1	-23	2.07
CCCN(Cc1ccccc1)Cc1nc2ccccc2o1	-7	0.57
CCOc1ccc(OCc2nc(C)n(CC)n2)cc1	-9	1.26
CC(C)[C@@H](c1ccccc1Cl)N(C)C(=O)CN1CCCS1(=O)=O	-7	0.74
Cc1[nH]c(CN2CCOc3ccc(CO)cc3C2)cc1C#N	-13	1.69
CN(C)S(=O)(=O)c1ccc2c(c1)CCN2S(=O)(=O)c1ccc2ccccc2c1	-7	0.97
O=C(Nc1ccc(N2CCC(N3CCCCC3)CC2)cc1C(=O)O)c1ccccc1Cl	31	-0.52
c1cc(-c2nc3c(c(N[C@@H]4COC5(CCCCC5)C4)n2)CNC3)ccn1	-12	2.1
O=C(COc1ccccc1)N[C@@H](c1ccsc1)c1cccs1	-4	0.76
COc1ccc(C(=O)N2C[C@@H]3CC[C@H]2CN(S(=O)(=O)N(C)C)C3)o1	-9	1.74
CCN1CCCC1CN1CC(C(=O)N[C@H](CC(C)C)C(=O)O)CC1=O (stereo partly specified)	8	-1.01
Oc1ccccc1-c1cnc(C(F)(F)F)s1	93	-17.09
CCCOC(=O)N1CCN(Cc2cnn(CC)c2)[C@@H]2CS(=O)(=O)C[C@@H]21	-12	2.41
COc1cccc(CNCCN2CCCC2=O)c1OC[C@@H](O)CN1CCOCC1	-6	0.93
O=C(Nc1ccccc1)C1CCN(Cc2cnc(C3OCCO3)s2)CC1	-13	1.48
CCC(=O)Nc1ccc2c(c1)CN(C(=O)c1cccc(Cl)c1)[C@H](C(=O)N1CCCC1)C2	-8	1.28
COc1cccc(F)c1-c1cnn(CC2CC2)c1	-15	1.35
CC(C)CNc1nc(Nc2ccc(F)cc2)c2nn[nH]c2n1	-2	0.29
Cc1cc(C(=O)N2CC(C)(C)Oc3cc(Br)ccc32)ncn1	-9	1.36

SMILES	% Inhibition [%]	Z score
CNc1nc2c(c(C(=O)N3CCCC3)n1)CN(C(=O)N(C)c1ccccc1)CC2	-10	1.96
Cc1ccc(OCCN(C)C(=O)NCC2(Cn3ccnc3)CC2)c(C)c1	-5	1
CCOc1ccc(NC(=O)Cn2nc3c(N(C)C)nc4ccccc4n3c2=O)cc1	-13	1.82
Cn1ccnc1[C@H](C1CC1)n1cnc2cccc(F)c2c1=O	-2	0.32
CN(C(=O)CCC(F)(F)F)c1ccc(Br)cc1F	-3	0.44
COc1ccc(S(=O)(=O)N2CCCc3ccccc32)cc1NC(=O)c1ccc(Cl)cc1	-29	3.41
CCc1nnc(C(=O)N[C@H](CO)[C@@H](C)O)s1	-5	0.97
CCC1(CC)C(NC(=O)Cc2cc(C)[nH]n2)C(C)C1OC (stereo unspecified)	-7	1.09
c1cc(-c2nccn2CC[C@H]2CCCCO2)cc(-n2cccn2)c1	0	0.04
Cc1ccc(Oc2nc(N3CCC(C)CC3)nc3c2CN(S(=O)(=O)c2cccc(C)c2)CC3)cc1	-2	0.36
Cc1nc(CNC(=O)NCCc2csc(-c3ccccc3)n2)no1	-9	1.47
COc1ccccc1Oc1cn[nH]c1-c1ccc(OCc2ccccc2C)cc1O	-7	0.65
Cc1ccn(CCC(=O)Nc2cccnc2)n1	-1	0.08
CC(C)Oc1ncccc1C(=O)N1CCS(=O)(=O)c2ccccc2C1	-11	2.16
O=C(C1CCC1)N1CC(n2ccnc2)C1	1	-0.25
CC(C)[C@H](OC(=O)c1cc[nH]n1)C(=O)N1CCc2ccccc2C1	-11	1.63
Fc1ccccc1[C@H](c1nnc(-c2ccccc2)o1)N1CCC2(CC1)OCCO2	-11	1.16
CCN1CCN(CCN2CC3(CCN(Cc4ccccc4C#N)CC3)OC2=O)CC1	2	-0.49
O=C1NC2(CCCC2)C(=O)N1Cc1cc(-c2ccc(Cl)cc2)no1	-12	1.37
O=C(N[C@H]1CCCC[C@@H]1F)N1CCCO1	-11	1.27
